Experimental data reported in PubChem BioAssay AID463173 (ICCB-Longwood Screening Facility, Harvard Medical School, 2010).
The whole screen tested about 52,000 compounds, of which about 4,300 (8.3%) were called active. No stated cut-off is given here; in the data, active means survival mostly below about 52% (no sharp cut-off); inactive means mostly above about 56%. The list shows a part of the results.

These compounds were tested on DeltatarO mutant (assay: growth inhibition of S. aureus wild type versus tarO mutant, primary screen, teichoic acid synthesis inhibitors, RN4220, OD600 (AID 463173)). Details: OD600, 18 h, active compounds read low, screened at 18.75 µg/mL (by protocol).

SMILES	survival
Cc1ccc(CNC(=O)Cn2ccn(-c3ccc(C)c(C)c3)c(=O)c2=O)cc1	inactive: 67%
CN(C)c1ccc(CNC(=O)CN(C)S(=O)(=O)c2ccc3c(c2)c(=O)n(C)c(=O)n3C)cc1	inactive: 97%
Cc1ccc(-n2nc3c(N4CCCC(C(=O)NCCc5ccccc5)C4)nnc(C)c3c2C)cc1 (stereo not drawn)	inactive: 94%
COc1cccc(C(=O)Nc2c(C(=O)NC(C)(C)C)oc3ccccc23)c1	inactive: 112%
Cc1ccc(CCNC(=O)Cn2c(-c3cccs3)cc3cc(F)ccc32)cc1	inactive: 90%
CCc1cccc2sc(N3CCN(C(=O)c4cc5ccccc5cc4OC)CC3)nc12	inactive: 119%
CC1=C(C(=O)Nc2ccc(C)cc2C)C(c2ccc(Cl)cc2)n2nc(C(=O)OC(C)C)nc2N1 (stereo not drawn)	inactive: 53%
O=C(Cn1cnc(S(=O)(=O)N2CCCC2)c1)Nc1ccc(OC(F)(F)F)cc1	inactive: 70%
CCc1ccc(NC(=O)c2cc3sc(Cl)cc3n2C)cc1	inactive: 125%
COc1ccc(OC)c(NC(=O)Cn2cnc3c(oc4ccccc43)c2=O)c1	inactive: 67%
COc1ccc(CN2COc3ccc4c(-c5ccccc5)cc(=O)oc4c3C2)cc1	inactive: 109%
O=C1CCN(C(=O)c2ccccc2)C2CCCCC12 (stereo not drawn)	inactive: 95%
Cc1cccc(N2CCN(C(=O)C3CCN(S(=O)(=O)c4cccs4)CC3)CC2)c1C	inactive: 61%
O=C(Cn1ncc2c3ccccc3n(Cc3ccccc3F)c2c1=O)NCCc1ccc(Cl)cc1	inactive: 50%
CCOC(=O)c1c(C)[nH]c(C)c1S(=O)(=O)N1CCCC(C(=O)Nc2ccc(OC)c(Cl)c2)C1 (stereo not drawn)	inactive: 85%
COc1ccc(Oc2nc3c(c(=O)n(Cc4ccccc4Cl)c(=O)n3C)n2C)cc1	inactive: 55%
COC(=O)c1c(SCC(=O)Nc2ccccc2OC)[nH]c2ccccc2c1=O	inactive: 55%
Cc1cc2ccccc2n1-c1ccc(C(=O)N2CCC(C(=O)NCc3ccc(F)cc3)CC2)s1	active: 6%
O=C(C1CC1)N1CCc2cc(Br)cc(S(=O)(=O)N3CCN(c4ccccc4F)CC3)c21	inactive: 69%
COc1ccc(CNC(=O)Cn2ccc3cc(S(=O)(=O)N4CCCCCC4)ccc32)c(OC)c1	inactive: 134%
Cc1ccc(NC(=O)C2CCN(c3nn4c(=O)cc(C)nc4s3)CC2)cc1	inactive: 104%
Cc1c(Cl)cccc1NC(=O)CSc1cc(-c2ccccc2)ncn1	inactive: 52%

SMILES	survival
COc1cccc(NC(=O)c2ccc(CNS(=O)(=O)c3ccc4c(c3)C(C)(C)C(=O)N4C)cc2)c1	inactive: 51%
CC(C)n1c(=O)c2oc3ccccc3c2n(Cc2ccccc2F)c1=O	inactive: 50%
Cc1ccc(-c2nnc(Nc3ccc(O)cc3)c3ccccc23)cc1S(=O)(=O)NCC1CCCO1 (stereo not drawn)	inactive: 93%
COc1ccc(Cn2ccc3nc(C)c(C(=O)Nc4ccc(OC)cc4OC)cc3c2=O)cc1	active: 8%
CNC(=O)N(O)C1N(c2ccccc2)C(=S)SC1(C)C (stereo not drawn)	inactive: 79%
Cc1ccc(C)c(CN2C(=O)c3ccccc3S(=O)c3ccc(C(=O)NCc4ccco4)cc32)c1 (stereo not drawn)	inactive: 72%
Cc1ccc(NC(=O)Cn2c(=O)n(CCc3ccccc3)c(=O)c3c4c(sc32)CCCC4)cc1C	inactive: 97%
Cc1ccc(NC(=O)Cn2cc(S(=O)(=O)NC(C)C)c(S(=O)(=O)NC(C)C)c2)cc1Cl	inactive: 95%
COc1cccc(NC(=O)N2CCN(c3nnnn3-c3ccccc3)CC2)c1	inactive: 86%
CCc1ccc(NC(=O)Cn2c(=O)ccc3cc(S(=O)(=O)N4CCCC4)ccc32)cc1	inactive: 144%
CCOC(=O)c1cccc(NC(=O)CCNS(=O)(=O)c2cccc3nonc23)c1	active: 46%
CN(C)c1cccc(C(=O)Nc2ccc(-c3nc4ccccc4s3)cc2)c1	inactive: 106%
O=C(CSc1nc2c(oc3ccccc32)c(=O)[nH]1)Nc1cccc(Cl)c1	active: 37%
CC1=C(c2ccc(Cl)cc2)S(=O)(=O)NC1=NCc1ccc(C)cc1	inactive: 86%
CC12CN3CC(C)(CN(C1)C3c1ccc(OCc3ccccc3)cc1)C2=O (stereo not drawn)	inactive: 89%
Cc1ccc(CCNC(=O)c2ccc(CSCc3ccc(C)cc3)o2)cc1	inactive: 55%
CCOC(=O)c1ccc(NC(=O)c2cc3c(n(-c4ccc(C)cc4)c2=O)CC(C)(C)CC3=O)cc1	inactive: 153%
Cn1c(C(=O)N2CCC(C(=O)NCCc3ccc(S(N)(=O)=O)cc3)CC2)cc2sccc21	inactive: 77%
COc1ccc(-c2nc3scc(CCNS(=O)(=O)c4cccc(C(C)=O)c4)n3n2)cc1	inactive: 84%
CCc1ccc(NC(=O)c2oc3c(c2C)-c2[nH]ncc2CC3)cc1	inactive: 48%
CC1(C)C(=O)NCCN1C(=O)CSc1nccc(-c2ccccc2)n1	inactive: 87%
CCc1ccc(NC(=O)c2ccc3c(c2)c(C)c(C)n3Cc2ccccc2)cc1	inactive: 89%

SMILES	survival
CCOC(=O)c1cccc(Nc2cc(C)nc(C)n2)c1	inactive: 65%
Cc1cccc(-n2ncc3c(Nc4c(C)cc(C)cc4C)ncnc32)c1	inactive: 74%
Cc1nnc2c3ccccc3nc(N3CCN(c4cccc(Cl)c4)CC3)n12	inactive: 92%
CCOCCCn1c(=N)c(C(=O)NC2CCCC2)cc2c(=O)n3cccc(C)c3nc21	inactive: 77%
Oc1ccc(Nc2nc(-c3ccc(Cl)cc3)nc3ccccc23)cc1	active: 3%
Cc1noc(Cn2c(=O)c3ccccc3n(CC(=O)Nc3ccccc3C(F)(F)F)c2=O)n1	inactive: 99%
CC(C)n1c(N2CCN(Cc3ccc(Cl)cc3)CC2)nc2ccccc21	inactive: 83%
CCc1ccc(NC(=O)CN2C(=O)CCSc3ccc(S(=O)(=O)N4CCCC4)cc32)cc1	inactive: 94%
COc1ccc(C(=O)c2cn(Cc3cccc(C)c3)c3cc4c(cc3c2=O)OCCO4)cc1OC	inactive: 85%
Cc1nn2c(=O)cc(COC(=O)c3ccc(F)cc3)nc2s1	inactive: 67%
Cc1ccc(N(C(=O)c2cccc(C)c2)S(=O)(=O)c2ccc(Cl)cc2)cc1	inactive: 81%
CCN(CC)CCNC(=O)Cn1ncc2c3ccccc3n(Cc3ccccc3C)c2c1=O	inactive: 116%
COc1ccc(CCNC(=O)Cn2ccc3cc(S(=O)(=O)N4CCCCC4)ccc32)cc1OC	inactive: 88%
CC1CN(CCC(=O)Nc2ccc3c(c2)OCO3)CC(C)O1 (stereo not drawn)	inactive: 75%
COC(=O)c1ccccc1NC(=O)c1cc(=O)c2ccc(C)c(C)c2o1	inactive: 72%
Cn1nnnc1SCCCNCc1ccccc1OCc1ccccc1F	inactive: 72%
CC(=O)c1ccc(NC(=O)c2ccc(CN3C(=O)CCn4nc(C)cc43)cc2)cc1	inactive: 76%
Cc1ccc(S(=O)(=O)Nc2ccc3c(c2)c(C(=O)OC(C)C)c(C)n3S(=O)(=O)c2ccc(C)cc2)cc1	inactive: 87%
COc1ccc(S(=O)(=O)NCCc2cn3ccsc3n2)cc1	inactive: 86%
O=C(CCC1N=C2c3ccccc3N=C(SCc3cccc(F)c3)N2C1=O)NCc1ccc(F)cc1 (stereo not drawn)	inactive: 72%
Cc1ccc(CCNC(=O)CN2CCN(Cc3ccc(Cl)cc3)C2=O)cc1	inactive: 67%
O=S(=O)(Nc1ccc(Br)cc1)c1ccc2nc(-c3ccccc3)[nH]c2c1	active: -1%

SMILES	survival
CCc1ccc(NC(=O)Cn2nnc(C(=O)Nc3cc(C)ccc3OC)c2N)cc1	inactive: 102%
O=C(Nc1ccccc1Br)N1CCN2CCCCC2C1 (stereo not drawn)	inactive: 93%
CCc1c(C)nc2nncn2c1Nc1cccc(C)c1	inactive: 85%
COc1ccc(-c2nc(SCC(=O)Nc3cccc(C(C)=O)c3)n[nH]2)cc1	inactive: 128%
Fc1ccc(-c2noc3ncnc(N4CCCCC4)c23)cc1	inactive: 102%
N#Cc1ccccc1S(=O)(=O)N1CCC(Oc2ccc(-n3cnnn3)cc2)CC1	inactive: 82%
COc1cccc(/C=C2/SC(=O)N(C)C2=O)c1O	inactive: 83%
COc1ccc(Cc2nc3ccc(C(=O)NCc4cc(Br)ccc4OC)cc3o2)cc1	inactive: 93%
CCCCNC(=O)CCCn1c(=O)c2ccccc2n(Cc2ccc(Cl)cc2)c1=O	inactive: 128%
COc1ccc(C2CC(=O)c3cnc4c(-c5ccccc5)c(C)nn4c3C2)c(OC)c1 (stereo not drawn)	inactive: 82%
COc1ccc2c(c1)c1c(c(=O)n(-c3ccc(OC)c(OC)c3)c(=O)n1Cc1ccc(C)cc1)n2C	inactive: 73%
CC(C)n1c(SCC(=O)N2CCc3ccccc32)nc2c1c(=O)n(C)c(=O)n2C	inactive: 66%
COc1ccccc1CNC(=O)CCCn1c(=O)c2cccn2c2ccccc21	inactive: 76%
Cc1[nH]c2ccccc2c1/C=C(\C#N)C(=O)NCc1ccco1	inactive: 62%
Cn1c(=O)c2c(ncn2CC(=O)Nc2cc(Cl)cc(Cl)c2)n(C)c1=O	inactive: 66%
Cn1cc(S(=O)(=O)N2CCCCCC2)cc1C(=O)N1CCN(c2ccc(Cl)cc2)CC1	inactive: 78%
Clc1ccc(CCNC(c2cccc(Cl)c2)c2nnc(-c3ccccc3)o2)cc1 (stereo not drawn)	active: 11%
Cc1nn(C)c2c1c(C(F)(F)F)cc(=O)n2C(C)C(=O)N1CCN(c2ccccc2)CC1 (stereo not drawn)	inactive: 86%
CCOC(=O)c1c(C)oc2ncnc(N3CCN(c4cccc(Cl)c4)CC3)c12	inactive: 110%
COc1ccc(Cl)cc1NC(=O)CSc1nc2ccccc2nc1N1CCCCC1	active: 27%
CCOC(=O)c1c(C)[nH]c(C)c1S(=O)(=O)N1CCN(c2ccccc2OC)CC1	inactive: 122%
CCOC(=O)c1c(NC(=O)CS(=O)(=O)c2ccc(Cl)cc2)sc2c1CCCC2	inactive: 77%
